The results in this text go back to the RNAGym collection of RNA variant scans (doi:10.7554/elife.90254).

The source gives no read counts; variants with many changes may rest on few reads.

B1: LINE1-mini (parent)
chain: GGCAGAGCUCAACACAGCGUGGCAAAGUGGCUGUGGCUAGACUGCC

The series covers variants of B1. In words: self-cleavage, relative activity (ratio to wild type); higher = more cleavage; in vitro, sequencing; the parent is a self-cleaving ribozyme.
For the variant GGCAGAGCUCCACACAACGUGGCAAAGUGGCUGUGGCUAAACUGCC [A11C G17A G40A], the self-cleavage stood at 0.01.
For GGCAGAGCUCCACACAACGUGGCAAAGUGGCUGUGGCUAGACUGAC [A11C G17A C45A] the value was 0.02; for GGCAGAGCUCCACACAGCCUGGCAAGGUGGCUGUGGCUAGACUGCC [A11C G19C A26G], 0.04.
On to GGCAGAGCUCCACACAGCGUGGCAAAGUGGCUGUGGCUAGAUUGGC [A11C C42U C45G], for which the self-cleavage amounted to 0.01.
For GGCAGAGCUCCACACAGUGUGGCAAAGUGGCUGUGGCUACACUGCC [A11C C18U G40C] the value was 0.03; for GGCAGAGCUCCACACAGUGUGGCAAAGUGGCUGUGGCUAUACUGCC [A11C C18U G40U], 0.03; for GGCAGAGCUCCACACACCCUGGCAAAGUGGCUGUGGCUAGAGUGCC [A11C G17C G19C C42G], 0.
For the variant GGCAGAGCUCCACACAGCGUGGCAAAACGGCUGUGGCUAGACUGCC [A11C G27A U28C], the self-cleavage is 0.05.
For the variant GGCAGAGCUCCACACAGCUUGGCAAAGUGGCUGUGGCUAGACUCCC [A11C G19U G44C], the self-cleavage was 0.03.
The figure for GGCAGAGCUCCACACAGUGUGGCAAAGUGGCUAUGGAUUGGCAACA [A11C C18U G33A C37A A39U A41G U43A G44A C46A] is 0; for GGCAGAGCUCCACACAGCUUGCCAAAGUGGCCGUGGGUUGACUGCC [A11C G19U G22C U32C C37G A39U] it is 0.
GGCAGAGCUCCACACAGCGUCGCAAAUUGGCGGUGGGUAGACUGCC [A11C G21C G27U U32G C37G]: the self-cleavage amounted to 0.01.
The figure for GGCAGAGCUCCACACAGCAUGGCAAAGUGGCUGUGGAUAGAAUGCC [A11C G19A C37A C42A] is 0.01.
Take GGCAGAGCUCCACACAGUGUGACAAAGUGACUGUGGCUAGACUGCC [A11C C18U G22A G30A]: the self-cleavage is 0.04.
Take GGCAGAGCUCCACACAGCGUGGUAAAGUGCCUGUUGCUAGACUGCC [A11C C23U G30C G35U]: the self-cleavage came to 0.
In the case of GGCAGAGCUCCACACAGCGUGGUAAACUGGCUGUGGCUAGACUGCC [A11C C23U G27C], the self-cleavage is 0.05.
For GGCAGAGCUCCACACAGCGUGGCAAAGUGGGUGUGGCAAGAUUGCC [A11C C31G U38A C42U], the self-cleavage was 0.
For GGCAGAGCUCCACACAGCAUGGCAAAGUGGCUGUGGCUAGACUCCC [A11C G19A G44C], the self-cleavage is 0.01.
Consider GGCAGAGCUCCACACAGCAUGGCAAAGUGGCUGUGGCUAGACUACC [A11C G19A G44A], for which the self-cleavage stood at 0.02.
As for GGCAGAGCUCCACACAGUGUGGCAAAGUAGCUGUGGCUAGACUGCC [A11C C18U G29A], the self-cleavage stood at 0.08.
For GGCAGAGCUCCACACAGCGUGGCAAAGUGGUGGUGGCGAGACUGCC [A11C C31U U32G U38G] the value was 0.01; for GGCAGAGCUCCACACACCGUGGAAAAGAGGCUGUGGGUAGACUGCC [A11C G17C C23A U28A C37G], 0.01; for GGCAGAGCUCCACACAGCACGGCAAAGUGGCUGUGGCUUGAGUGCC [A11C G19A U20C A39U C42G], 0.01.
GGCAGAGCUCCACACAGCGUGUCAAAGUGAAUGUGGCUAGACUCCG [A11C G22U G30A C31A G44C C46G]: the self-cleavage is 0.01.
In the case of GGCAGAGCUCCACACAGCGUCGCAAAGUGGAUAUGGCUACACUGAC [A11C G21C C31A G33A G40C C45A], the self-cleavage is 0.01.
Regarding GGCAGAGCUCCACACAGCGUCGCAAAAUAGCUGUGGCUAGACUGCC [A11C G21C G27A G29A], the self-cleavage was found to be 0.
The figure for GGCAGAGCUCCACACAGCGUGGCAAAGUGGGUGUGGCUAGACUGCU [A11C C31G C46U] is 0; for GGCAGAGCUCCACACAGCGUGGCAAAGUGGGUGUGGCUAGACUGCA [A11C C31G C46A] it is 0.
The figure for GGCAGAGCUCCACACAGCGUGGAAAAAGGGCUGUGGCUAGACUGCC [A11C C23A G27A U28G] is 0.01; for GGCAGAGCUCCACACAUCGCGGAUAAGUGGCUGUGGCUAGACUGCC [A11C G17U U20C C23A A24U] it is 0.03; for GGCAGAGCUCCACACAGCGUGCCAUAGUGUCUGUGGCUAGACUGCC [A11C G22C A25U G30U] it is 0.03.
For GGCAGAGCUCCACACAGCGUGCCAAAGUGGCGGUGGCUAGACUGCC [A11C G22C U32G], the self-cleavage amounted to 0.
Regarding GGCAGAGCUCCACACAGCAUGGCAGACUGGCUGUGGCUAGACUGCA [A11C G19A A25G G27C C46A], the self-cleavage is 0.03.
Take GGCAGAGCUCCACACAGCGUGUCAAAGUGGCGGUGGCUAUUCUGCC [A11C G22U U32G G40U A41U]: the self-cleavage came to 0.
For GGCAGAGCUCCACACAGCUUAGCAAACUGGCUGUGGCUAGACUGCC [A11C G19U G21A G27C] the value was 0.12; for GGCAGAGCUCCACACAGCGUGACAAAGUGGCUGUGGCUUAACUGCC [A11C G22A A39U G40A], 0.02.
With GGCAGAGCUCCACACAGCGUAACAAAGUGGCUGUGCCUAGGCUGCC [A11C G21A G22A G36C A41G], the self-cleavage came out at 0.02.
For GGCAGAGCUCCACACAACGUGGCAAAGUGGCUGUCGCUAGACUGCC [A11C G17A G35C] the value was 0.01; for GGCAGAGCUCCACACAGCCUGGCAAAGUGGCUGUGGCUAGAAUGCU [A11C G19C C42A C46U], 0.
For GGCAGAGCUCCACACAGCGUGGUAUUGUGGCUGUGGCUAGUCUGCC [A11C C23U A25U A26U A41U] the value was 0.07.
Take GGCAGAGCUCCACACAGCGUGGCAAAAUGGCUGUGGCAAGACUUCA [A11C G27A U38A G44U C46A]: the self-cleavage came out at 0.
As to GGCAGAGCUCCACACAGCGUAGCAAAAUGGCUGUGGCUAGACUCCC [A11C G21A G27A G44C], the self-cleavage was 0.02.
As to GGCAGAGCUCCACACAGCGUGGCAAACUGGCUGUGGCUAGACUGCA [A11C G27C C46A], the self-cleavage amounted to 0.05.
In the case of GGCAGAGCUCCACACAGCGUGGGAAAGUGGCUGUGGGUAGACUGCC [A11C C23G C37G], the self-cleavage is 0.
Turning to GGCAGAGCUCCACACAGCGUGACAAAGUGGCUGUGGCUAGACUGCU [A11C G22A C46U], the self-cleavage was 0.15.
Regarding GGCAGAGCUCCACACAGCGUGGCAAAGUGGAAGUGGCUAUACUGCC [A11C C31A U32A G40U], the self-cleavage was determined as 0.01.
For GGCAGAGCUCCACACACAGUGGCAAAUUGGCUGUGCCUAGAGUGCC [A11C G17C C18A G27U G36C C42G] the value was 0; for GGCAGAGCUCCACACAUCGUGGCAAAGUGACUGUGGCUAGACUAAC [A11C G17U G30A G44A C45A], 0.01; for GGCAGAGCUCCACACAUCGUGGCAAUGUGGCUGUGGCUAGACUGCC [A11C G17U A26U], 0.01.
GGCAGAGCUCCACACAGCGUGGCAAAGUGGUUUUGGCUAGACUGCC [A11C C31U G33U]: the self-cleavage is 0.
As to GGCAGAGCUCCACACACCGUGGCAAGGUGGCUGUGGCUAGACUGCC [A11C G17C A26G], the self-cleavage was found to be 0.01.
On to GGCAGAGCUCCACACAGCGUGGCAAAGUGGGUAUGGCUGGACUGCC [A11C C31G G33A A39G], for which the self-cleavage amounted to 0.
On to GGCAGAGCUCCACACACCGUGGCAAAGUGACUGUGGCUAGACUGCC [A11C G17C G30A], for which the self-cleavage stood at 0.03.
On to GGCAGAGCUCCACACAGUGUGGCAAAGUGGCUGUGACUAGACUGCC [A11C C18U G36A], for which the self-cleavage came out at 0.02.
Regarding GGCAGAGCUCCACACAGCGUGUCAAAGUGGCUGUGGCCAGACUGCC [A11C G22U U38C], the self-cleavage came to 0.09.
For the variant GGCAGAGCUCCACACAGCGUGGCAAAGUGGCUGUGGACAGACUGCC [A11C C37A U38C], the self-cleavage is 0.01.
